Data from article PMC2849011.
These are yes or no findings as the source states them, for the method shown. In cells and extracts the contact can be indirect. Some entries that bind do so weakly or less than the wild type.

Chains of the proteins cited; added tags and fusions are not shown. Lines headed by an entry give the natural chain unless they say otherwise; changes in a name come on top.
UniProt Q9NP77: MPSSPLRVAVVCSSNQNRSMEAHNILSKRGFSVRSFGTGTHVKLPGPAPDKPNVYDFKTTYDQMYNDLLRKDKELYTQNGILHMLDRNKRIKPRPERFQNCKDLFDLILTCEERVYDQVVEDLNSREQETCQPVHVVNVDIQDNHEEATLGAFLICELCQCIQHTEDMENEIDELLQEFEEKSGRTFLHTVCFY
UniProt Q00403: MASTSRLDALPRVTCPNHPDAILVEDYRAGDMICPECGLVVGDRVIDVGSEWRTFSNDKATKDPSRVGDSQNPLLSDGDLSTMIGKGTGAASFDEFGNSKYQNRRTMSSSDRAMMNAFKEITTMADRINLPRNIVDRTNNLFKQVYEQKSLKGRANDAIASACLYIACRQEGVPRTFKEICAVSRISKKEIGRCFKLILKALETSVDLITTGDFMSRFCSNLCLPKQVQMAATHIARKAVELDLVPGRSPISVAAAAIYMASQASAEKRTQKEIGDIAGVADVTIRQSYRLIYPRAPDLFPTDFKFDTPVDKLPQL

T1: CstF-64 (human (endogenous in HEK293T)) (UniProt P33240)
T1 sequence: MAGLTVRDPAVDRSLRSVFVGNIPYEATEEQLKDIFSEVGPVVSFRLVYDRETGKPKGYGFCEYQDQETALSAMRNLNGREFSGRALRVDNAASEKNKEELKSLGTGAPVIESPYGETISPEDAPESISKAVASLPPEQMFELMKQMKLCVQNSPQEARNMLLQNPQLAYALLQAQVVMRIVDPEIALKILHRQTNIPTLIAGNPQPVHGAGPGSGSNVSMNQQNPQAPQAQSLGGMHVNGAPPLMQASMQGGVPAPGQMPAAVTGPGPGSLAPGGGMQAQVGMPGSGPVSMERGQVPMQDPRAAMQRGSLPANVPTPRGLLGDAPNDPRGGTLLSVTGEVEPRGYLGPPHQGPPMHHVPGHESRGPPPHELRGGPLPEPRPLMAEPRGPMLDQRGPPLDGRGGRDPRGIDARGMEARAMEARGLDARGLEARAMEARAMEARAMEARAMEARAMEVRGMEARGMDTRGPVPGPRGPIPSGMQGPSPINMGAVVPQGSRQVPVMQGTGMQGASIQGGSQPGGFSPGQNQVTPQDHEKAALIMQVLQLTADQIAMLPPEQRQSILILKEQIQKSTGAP


Experiments:
[1] = target: T1, CstF-64 (human (endogenous in HEK293T)); assay: condition: only extracts treated with lambda phosphatase; co-IP; endogenous proteins; HEK293T whole-cell extract treated with lambda phosphatase before immunoprecipitation with anti-Ssu72 or anti-CstF-64 antibodies, immunoblot with anti-TFIIB
[2] = target: Ssu72 (human (endogenous in HEK293T)) (UniProt Q9NP77); assay: co-IP; endogenous proteins; HEK293T whole-cell extract treated with lambda phosphatase before immunoprecipitation with anti-Ssu72 or anti-CstF-64 antibodies, immunoblot with anti-TFIIB
[3] = target: Ssu72 (human (endogenous in HEK293T)) (UniProt Q9NP77); assay: co-IP; endogenous proteins; HEK293T whole-cell extract prepared with phosphatase inhibitors, mock treated; immunoprecipitation with anti-Ssu72 or anti-CstF-64 antibodies, immunoblot with anti-TFIIB
[4] = target: T1, CstF-64 (human (endogenous in HEK293T)); assay: as above
[5] = target: HA-tagged TFIIB S65A (human) (UniProt Q00403); assay: co-IP; HEK293T transfected with HA-tagged TFIIB or S65A; cells untreated or treated with 100 nM calyculin A for 30 min before lysis; anti-HA immunoprecipitation in buffer with phosphatase inhibitors; immunoblot with anti-Ssu72 and anti-CstF-64
[6] = target: HA-tagged wild-type TFIIB (human) (UniProt Q00403); assay: as above

binding [1]	binding [2]	binding [3]	binding [4]	binding [5]	binding [6]	Molecule
no binding	binds	binds	binds	–	–	TFIIB (endogenous) (from UniProt Q00403 1-316)
–	–	–	–	binds	binds	Ssu72 (from UniProt Q9NP77 1-194)
–	–	–	–	–	binds	CstF-64 (protein, UniProt P33240 1-577) MAGLTVRDPAVDRSLRSVFVGNIPYEATEEQLKDIFSEVGPVVSFRLVYDRETGKPKGYGFCEYQDQETALSAMRNLNGREFSGRALRVDNAASEKNKEELKSLGTGAPVIESPYGETISPEDAPESISKAVASLPPEQMFELMKQMKLCVQNSPQEARNMLLQNPQLAYALLQAQVVMRIVDPEIALKILHRQTNIPTLIAGNPQPVHGAGPGSGSNVSMNQQNPQAPQAQSLGGMHVNGAPPLMQASMQGGVPAPGQMPAAVTGPGPGSLAPGGGMQAQVGMPGSGPVSMERGQVPMQDPRAAMQRGSLPANVPTPRGLLGDAPNDPRGGTLLSVTGEVEPRGYLGPPHQGPPMHHVPGHESRGPPPHELRGGPLPEPRPLMAEPRGPMLDQRGPPLDGRGGRDPRGIDARGMEARAMEARGLDARGLEARAMEARAMEARAMEARAMEARAMEVRGMEARGMDTRGPVPGPRGPIPSGMQGPSPINMGAVVPQGSRQVPVMQGTGMQGASIQGGSQPGGFSPGQNQVTPQDHEKAALIMQVLQLTADQIAMLPPEQRQSILILKEQIQKSTGAP
